What was measured:
Test in all cases: SEC; Superdex 200; preassembled CBC–ARS2 147–871–capped RNA complex incubated with CRM1, RanGTP and a PHAX construct; fractions on SDS-PAGE (7% gel to resolve CRM1 and ARS2)
Conditions in all cases: both partners purified
[1] = target: T1, Human CRM1 (human, UniProt O14980)
T1 construct: CRM1 (XPO1), human; also called XPO1; exportin CRM1; source: E. coli Tg1, pQE60, purified (Ni2+-chelating Sepharose, heparin, Superdex 200)

[2] = target: T2, Human nuclear cap-binding complex (CBC): CBP80ΔNLS with CBP20 (human, UniProt Q09161 20-790; P52298 1-156)
T2 construct: CBP80 (NCBP1), human, CBP80ΔNLS lacking the N-terminal 19 residues; CBP20 (NCBP2), human; also called CBP80–CBP20; source: CBP80ΔNLS in High Five insect cells, CBP20 in E. coli BL21Star (DE3); pellets lysed together, purified (Ni2+-chelating Sepharose, TEV, heparin, Superdex 200)
T2 sequence 1: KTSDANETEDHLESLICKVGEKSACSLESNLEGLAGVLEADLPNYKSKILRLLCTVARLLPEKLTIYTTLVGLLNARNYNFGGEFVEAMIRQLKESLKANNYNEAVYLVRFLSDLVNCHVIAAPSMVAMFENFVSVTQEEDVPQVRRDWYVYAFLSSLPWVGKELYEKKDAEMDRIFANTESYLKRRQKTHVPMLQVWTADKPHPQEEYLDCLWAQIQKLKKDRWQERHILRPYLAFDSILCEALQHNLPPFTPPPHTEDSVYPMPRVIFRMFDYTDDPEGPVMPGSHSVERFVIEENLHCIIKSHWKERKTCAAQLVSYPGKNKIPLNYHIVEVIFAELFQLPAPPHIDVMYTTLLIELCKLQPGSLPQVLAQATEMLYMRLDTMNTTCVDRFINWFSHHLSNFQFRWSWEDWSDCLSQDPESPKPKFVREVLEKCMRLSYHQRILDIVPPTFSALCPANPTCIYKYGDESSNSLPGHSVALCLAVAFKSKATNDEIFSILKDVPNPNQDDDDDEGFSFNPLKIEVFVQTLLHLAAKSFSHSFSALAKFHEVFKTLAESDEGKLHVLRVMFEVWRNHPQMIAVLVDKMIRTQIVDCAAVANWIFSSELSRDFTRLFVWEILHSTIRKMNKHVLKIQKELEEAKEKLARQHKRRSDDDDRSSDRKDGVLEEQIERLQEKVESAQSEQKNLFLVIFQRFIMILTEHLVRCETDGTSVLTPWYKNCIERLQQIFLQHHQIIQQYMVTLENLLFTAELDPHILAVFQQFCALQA
T2 sequence 2: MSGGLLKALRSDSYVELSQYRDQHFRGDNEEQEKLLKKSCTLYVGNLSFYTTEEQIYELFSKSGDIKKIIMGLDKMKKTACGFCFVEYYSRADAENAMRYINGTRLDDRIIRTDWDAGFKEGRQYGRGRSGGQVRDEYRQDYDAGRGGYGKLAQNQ

[3] = target: Human Ran Q69L bound to GTP (human, UniProt P62826, Q69L)

Measured: binding result

B1: Human full-length PHAX E9R, phosphorylated by CK2 (natural protein)
chain: not shown
modifications: phosphorylated (CK2); positions not given
notes: PHAX, human, full length, E9R in the ARM motif (9-EDGQL-13); Expression of the mutant is not described separately; also called phosphorylated FL PHAX E9R; FL PHAX E9R; source: E. coli, purified; phosphorylated with CK2 (as FL PHAX)
binds: [1] | [2] | [3]
